Results taken from the RNAGym collection of RNA variant scans (doi:10.7554/elife.90254).
Read counts are not given, so values of variants with three or more changes are uncertain.

B1: LINE1-mini (parent)
chain: GGCAGAGCUCAACACAGCGUGGCAAAGUGGCUGUGGCUAGACUGCC

Variants of: B1
Assay: self-cleavage, relative activity (ratio to wild type); higher = more cleavage; in vitro, sequencing; the parent is a self-cleaving ribozyme

Row | Variant | self-cleavage
1 | UGCAGAGCUCAACACAACGUGGCAAAGUGGCUGUGGCUAGUCUGUC | 0.11
2 | UGCAUACGUCAACAAAGCGUGGCAAAGUGGCUGUGCCUAGUAUUCC | 0.07
3 | UGCAUAGCUCAACACAGCGUUGCAAAGAGGCUGUGGCUAGACUGCC | 0.03
4 | UGCAUAGCUCAACACAGCGUGGCAAAGGGGCUGUGGCUAGACUGCC | 0.02
5 | UGCAUAGCUCAACAAAGCGUGGCAAAGUUGCUGUGGCUAGACAGCC | 0.07
6 | UUCAGAGCUCAACACAGCGUGGCAAAGUGGCUGAGGCUAGACUGCC | 0.01
7 | UGCAAAGCGCAACACAGCGUGGCAAAGUGGCUGUGGCUAGACUGCG | 0.03
8 | UGCACAGCUCAGCACAGCGUGGCAAAGUGGCUAUUGCUAGACUGCC | 0.08
9 | UGCAGAACUCAACGCACCGUGGAAAAGUGGCUGUGGCUAGACUGCC | 0.08
10 | UGCAGAACUCAACACAGCGUGGGACAGAGGCUGUGGCUAGACUGCC | 0.1
11 | UGCAGAACUCCACACAGCGGGGGAAAGUGGCUGUGGAUAGACUGCC | 0
12 | UGCAGAUCUCAACACAGCUCGGCAAAGUGGCGGUGGUUAUACUGCC | 0.02
13 | UGCAGAUCUCAACAAAGCGUGGCAAAGUGGUUAUGGCUAGAAUGCC | 0.13
14 | UGCAAGCCUCAACACAGCGUGGCAAAGUAGCUGUGGCUAGACUGCC | 0.26
15 | UGCAGAUCUCAACACAGCGUGGCAAAGUGGCUGUGGUUAGACUGCC | 0.01
16 | UUCAGAUCUCAACACAGAGUGGGAUCGCGGCUGUGGCUAGACUCCC | 0.01
17 | UGCACAGCUCAAUACAGCCUGGCAAAGUGGCUGUGGCUAGACUGCC | 0.17
18 | UUCAGAGCUCAACACAGCGUUGCAAAGUGGCUGUGGCUAGACUGCC | 0.09
19 | UCCAGAGCUCAACACAGCGUGGCAAACUGGCUGUGGCUAGACUGCC | 0.04
20 | UGCAAACCACAACACAGCGUUGCAAAGUGGCUGUGGCUCAACUGCC | 0.11
21 | UGCAUAGCUCAACACAGCGUGGCAAGGUGGCUGUGGCUAGACUGCC | 0.08
22 | UGCAGAACUCAACACAGCGUGGCAAAGUGGCUGUGGCUAGCCUGCC | 0.06
23 | UCCACAGCUCAACACAGGGUGGCAAAUUGGCUGUGGCUAGUCUGCC | 0.02

Row | Variant | self-cleavage
24 | UGCACAGCCCAACACAGCGUGGCAAAGUGUCUGUAGUUAGACUGCC | 0.02
25 | UGCAUGGCUCACCACAGCGUGGUAAAGUGGCUGUGGCUAGACUGCC | 0.02
26 | UCAAGAGCACAACACAGCGUGGCAAAGUGGCUGUGGCUCGACUGCC | 0.39
27 | UGCAUAGCCCACCACAGCGUGGCAAAGUGGCUGUGGCUAGACUGCC | 0.03
28 | UGCAUAGCUCAACUCAGCGUGGGAAAGUGCCGGUGGCUAGACUGCC | 0
29 | UCCAGAGCUGAACACAGCGUGGCAAAGUGGCGGUGGCUAGACUGCC | 0.01
30 | UGCACAGCUCCGCACAGCGUGGCAUAGUGGGUGUGGCUAGACUGCU | 0.02
31 | UGCAGACCUCAACACAGCGUGUCAAAGUGUCUGUGGCUAGACUUCC | 0.16
32 | UCCAGAGCUCAACACAGCGUGGGAAAGUGGCUGUGGCUAGACUGCC | 0.05
33 | UGCAGAUCUGAACACGGCGUGGCAAAGUGGCUGUGGGUAGACUUCC | 0
34 | UUAAGAGCUCAACACAGCGCCGCAAAGUGGCUGUGGCUAGACUGCC | 0.05
35 | UUCAUAGCUCAAUACAGCGUGGCAAAGUGGCUGUGGCUAGACUGCC | 0.02
36 | UGCAGAACUCAACACAGCGUGGCAAAGUGGCUGUGGCGAGACUGCC | 0.01
37 | UGCAUUGAUCAACACAGCGUGGCAAAUUGGCUGUGGCUAGACUGCC | 0.06
38 | UGCAUAGCUCAACACAGCGUUGCAAAGUGGCUGUGGCUAUACUGCC | 0.41
39 | UACAGAGCGUAACACACCGUUGCAAAGUGGCUGUGGCUAGACUGCC | 0.08
40 | UGCACAGCUCAACACAGCGUGGCAAAAUGGAUGUGGUUAGACUGCC | 0.08
41 | UGCAGAUCUCAACACAGCGUGGCACAGUGGCUGUGGCUAGACUGCC | 0
42 | UGCAGACCUCUACACAGCGUGGCAAAGUGGCUGUGACUAGAUUGCC | 0.02
43 | UGCAUAGCUCAACACAACGUGGCAAAGUGGCUGUGGCUAGACGACC | 0.01
44 | UGCAAAGCUCAACACAGCGUCGUAAAGUUGCUGUGGCUAGACUGCC | 0.04
45 | UGCAAAGCACAAGACAUCGUGGCCAAGUGGCUGUGGCUAGACUGCC | 0.03
46 | UGCAUAGCUCAACACAGCGUGGCAAAGUGGCUGAGGCUAGACUGCC | 0

Row | Variant | self-cleavage
47 | UGCAGAGCUCAACACAACGUGGCAACGUGGCUGUGGCUUGACUGCC | 0.01
48 | UGCAGACCUUAUCAUAGCGUGGCAAAGCCGCUGUAGGUAGACUGCC | 0.05
49 | UGCAUAACUCAACACAGCGUGGCAAAGUGGCUGUGGCUAGACUGCC | 0.07
50 | UGCAAAGCUCAUGACAGCGUGGCAAAGUGGCUCUGGCUAUACUGCC | 0.12
51 | UGCAUAGCUCAACACAGCGUAGCAAAUUGGCUGUGGCUAGACUGCC | 0.08
52 | UCCACAGCUCAACACAGCGUGGCAUAGAGGCUGCGGCUAGACUGCC | 0.01
53 | UGCAUAGCUCAACACAGCGUGGCAAAGUGGCUGUGGCUAGACUGAC | 0.05
54 | UGCAGAUCUCAACACAGCGUGGCAAAGUGGCUGUGGCUAGACUGCA | 0
55 | UGCAGAUCUAAACACAGCGUGGCAAAGUGGCUGUGGCUAGCCUGCC | 0.02
56 | UGCAGAACUCAACACAUCGUGGCAAUGUGGCGGUGUCUAGACUGCC | 0.04
57 | UCCAGAGCUCAAGACAGCGUGGCAAAGAGGCUGUGUCUAGACUGCC | 0.12
58 | UGCAGAACUCAACACAACGUGGCAAAGUGGCUGUGGCUAGACUGCC | 0.12
59 | UGCAUAGCUCAACACAGGGUGGCAAAGUGGCUGUGCCUAGACUCCC | 0
60 | UUCAGAGCUCAACACAGCGUGGCAAAGAGGCUGUGGCUAGACUGCC | 0.05
61 | UGCAUAGCUCAAAACAGCGUGGCAAAGUGGCUGUGGCUAGACUGCC | 0.08
62 | UGCACAGCUCAUCACCGCGUGGCAAAGUGGCUCUGGCUAGAGUGCU | 0.03
63 | UGCAAAGCUCAACACAGCGUGGCAAAGUGGCUGUGGCUAGACUCCC | 0.1
64 | UGCAAAGCUCAACACAGCGUCGCUCAGUGACUGUGGCUUGACUGCC | 0.05
65 | UGCAGAUCUCAACACAGCGUGGCAAAUUGGAUGUGGCUAGCCUGCC | 0.03
66 | UUCGGAGCUCAACAUAGCGUGGCAAAGUGGCUGUGGCUAGACUGUC | 0.11
67 | UGCAGAACUCAACACAGCGUGGCAAAGUGGCUGUUGCUAGACUGCC | 0.04
68 | UGCACAGCUCAACACAGCCUGGCAAAGUGGCUGUGGCUAGGCUGCC | 0.01
69 | UGCAGAUAUCAACACAGCGGGGCAAAGUGGCUGUGGAUAGACUGCC | 0.03

Row | Variant | self-cleavage
70 | UGCACAGCUCAACACAGCGUGGCAAAGUGGCUGUGGUUAGACUGUC | 0.03
71 | UGCAGAACUCAACACAGAGUUGCAAAGUGUCUGUGGCUAGACUGCC | 0.04
72 | UUCAGAGCUCAACACAGCGUGGCAAAGUGGCUGUGGCUAGGCUGCC | 0.02
73 | UUAAGAGCACAACACAGCGUGGCAAAGUGGCUGUGGCUAGACUGCC | 0.25
74 | UCCAGAGCUCAACACAGCGUGGCAAAGUGGCUGUGGCUAGACUGCA | 0.04
75 | UGCACAGCUCAACACAGCGUGGCAAAGAGGCUGUGGCUAGACUGCC | 0
76 | UGCAGAUCUCAACACAGCGUGGCAAAGUGGCUGUGGCUAGACUGGC | 0.13
77 | UGCAUAGCUCAACACAGCGUGGCAAAGUGGCUGUGGCUCGACUCCC | 0.01
78 | UGCAGACCUCAACACAGAGGGGCACUGUGGCUGUGGCUUGACUGCC | 0.02
79 | UUCAGAGGUCAACACAGCUUGGAAAAGUGGCUGUAGCUGGACUGCC | 0.06
80 | UUCAGAGCUCAACACAGCGUGGCAUAGUGGCUGUGGCUAGACUGCC | 0.1
81 | UGCAGAACUCUACACAGAGUGGCAAAGUGGCUGUGGCUAGACUCCC | 0.01
82 | UGCAUAGCUCAACACAGCGUGGCAAAAUGGCUGUGGCUAGACUGCC | 0.1
83 | UGCAGAACUCAACCCAGCGUGGCAAAGUGGCUGUGGCUAGACUGCC | 0.05
84 | UUCAGAGCUCCACCCAGCGUGGCAAAGUGGCUGUGGGUAGACUGCC | 0
85 | UGCAGAACUAAACACAGCGUGGCAAAGUGGCUGUGGCUAAACUGCC | 0
86 | UGCAGAUCACCACACAGAGUGGCAAAGUGGCUGUAGCGAGACGGCC | 0
87 | UUCAGAGCUCAACAAAGCGUGGCAAAGUUGCUGUGGCUAGACCGCC | 0.06
88 | UGCACAGCUCAACACAGCCUGGCAAAGUGGCUGUGGUUAGACUGCC | 0.03
89 | UGCAGACCUAAACGCAGCGUGGCAAAGUGGCUGUGGCUAGACUGCC | 0
90 | UGCACCGCUCAACACAGCGUGGCAAAGUGGCUGUGGCUAGACUGCC | 0.03
91 | UGCAGACCUCAACACAACGUGGCAAAGUGGCUCUGGCUAGACUGCC | 0.06
92 | UGCAUAGCUCAGCACAGCGUGGCAAAAUGGCUGUGGCUAGACUGCC | 0.07

Row | Variant | self-cleavage
93 | UUCAGAGCUCGACACAGCAUGUCAAAGUGGCUGUGGCUAGACUGCC | 0.01
94 | UGCAGAAUUCAACACAGCGUGGCAAAGUGGAUGUGGCUAGACUGCC | 0.11
95 | UGCAGAUCUCAACAUAGCGUGGCAAAUUGGCUGUGGCUAGACUGCC | 0.04
96 | UACAGAGCUCAACACAGCGUGGCAAAAUGGCUGAGUCUAGACUGCC | 0.71
97 | UGCAAAGCUCAACACAGCGUGGCAAAGUGGCUGUGGCUGGAGUGCC | 0.02
98 | UGCAUAGCUUAACACAGCGUGGCAAAGUGCCUGUGGCUAGACUGCC | 0.03
99 | UCCAGAGCUCAACUCAGCGUGUCAAAGUGGCUGUGGCGAGACAGCC | 0.02
100 | UGCACAGCUCAACUCAGCGUGGCAAAGUGGCUGUGGCUAGACUUCC | 0.01
101 | UGCAUAGCUCAACACAGCGUUGCAAAGUGGCUGUGGCUAGACCGCC | 0.07
102 | UUCAGAGCUCAACACAGAGUGGGAACGUGGCUGUGGCUAGACUGCC | 0.07
103 | UGCAGAACUCAACACAGCGUUGCAUAGUGGCUGUGGCUAGACUGCC | 0.05
104 | UCCAAAGCUCAACGCAGCGUGGGAAAUUGGCUGUGGCUAGACUGCC | 0.03
105 | UGCAGAUCUAAACACAGCGUAGCAAAGUUGCUAUGGCUAGACUGCC | 0.03
106 | UGCAGAUCUCAACACAGAGUGCCAUAGUGGUUGUGGCUAGACUGCC | 0.01
107 | UGCAGAUCUCAACUCAGCGUGGCAAAGUGGCUGUGGCUAGACUGCC | 0.06
108 | UGCAUAGCUCAACACAGCGUGGCAAAGUGGCUGUGACUAGACUGCC | 0.13
109 | UGCAUAGCCCAACACAGCGUGUCAAAGUGGCUGUGGCUAGACUGCC | 0.02
110 | UUCAGGGCUCAACACAGCGUGGCAAAGUGGAUGUGGCUAGACUGCC | 0.01
111 | UCCAGAGCUCAAGACAGCGUGGCAAAGUGGCUGUGGCUAAACUGCC | 0.02
112 | UGCACAGGUCAACACAGCAUUUCAAAGUUGCUGUGGCUAUACUGCC | 0.01
